# From the supplement of paper PMC11417369
# Some of the results follow.
# Tested on: PfHDP1 homeodomain (GST-tagged)
# Experiment: gcPBM binding intensity (ln(normalized median fluorescence intensity)); higher = stronger DNA binding
# In short: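 Binding intensity is the highest Masliner-normalised natural-log median intensity over replicate spots in either probe orientation. To obtain it, GST-tagged P. falciparum DNA-binding domains made in E. coli were incubated for 1 h on an Agilent 4 × 180k array of primer-extended double-stranded 36-bp intergenic genomic probes plus negative controls. Detection used Alexa488 anti-GST antibody with scanning at 488 nm.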
row,Sequence,gcPBM binding intensity (ln)
1,TTACGCATACTAATTACACACAAATAGATGAATATA [CACACA_site1338],6.71
2,ATAAAAAAATAAATTAGTACATATATATATATATAT [XGTACX_site6971],9.33
3,TGTTTAAATTTTTTGTTTTTTTTTTTATAAAGCAAA [TGCATGCA_negctrl_site313],6.09
4,GTTGAACATAGATGCACACACATAAAATAAAAAAAA [CACACA_site5353],8.65
5,ACATATATATATAAATATATATATATATAAATATAT [CACACA_negctrl_site895],6.89
6,TTGTTGTTATTTAAAACACACATCAATCATCTTAAC [CACACA_site1142],6.21
7,TGAAGGTCAGTTCACAGTACCCAGTAACTCTACGGA [XGTACX_site2554],5.56
8,TATATTTTTTTAAAAAGTACTTTGTATATATATATA [XGTACX_site1300],9
9,TTAAATTAAAACAAATGTACAAAGTGCATATTTTTT [XGTACX_site8143],8.64
10,ATTTTTTTTTCTTTCGCACACGTGAAAGAATTTCTA [CACACA_site2052],6.93
11,ATAATTTAATACTAGTGTACAGAAAAAAAAAAAAAA [XGTACX_site6756],6.54
12,ATATTATATTATATAACACACATTTTTCATAACACT [CACACA_site407],6.67
13,AAGTGTATACAGAAGAGTACAAACAATTTTTTTCTT [XGTACX_site7387],6.13
14,TATATATATTTAAGGTGTACATAAATAACAAAATAT [XGTACX_site2641],6.74
15,AAAAAACACAGACACACACACATATACATACATACA [CACACA_site2666],7.19
16,ATATTTCGTCTAAAAAGTACACAACAATAAAAAGTA [XGTACX_site6668],7
17,TTAGGTTTATACACTACACACATTATTCATAAAAAA [CACACA_site871],6.8
18,TTTTTTAAATAATATTGTACAAAAAATGTATAAATA [XGTACX_site3010],6.59
19,TATTGTTATGTCGTTATTAACTTTCTTTAATTAATT [CACACA_negctrl_site174],6.91
20,TGAAAGTTCAATAATTGTACATGTGGAAATTCATAC [XGTACX_site1378],6.87
21,AAATATTCATAGTATACACACATTTATATATAATCA [CACACA_site771],6.66
22,AAAATTATAAATCTTGCACACAAAAAAAATAATAAA [CACACA_site8771],8.27

row,Sequence,gcPBM binding intensity (ln)
1,TAAATATATTCAATCACACACATTCGTTTTTTTTTT [CACACA_site234],6.48
2,AATTATTTTATGTGAGGTACACCACACATGAAGGGG [XGTACX_site8450],6.64
3,AACAAATACAGACACACACACACACTAATAAAAAAA [CACACA_site8067],6.93
4,AAAAATTTTATATTCACACACATATATATATATATA [CACACA_site624],9.29
5,TATTTTTATATTTTTGCACACATTCTTTACTCTTCA [CACACA_site2211],10.6
6,GATATATATTAATATACACACACACCGATATATATA [CACACA_site8462],7.04
7,TTTTGAAACATATGATGTACACGAACATTTAAAAAA [XGTACX_site474],6.6
8,AATAAATAGATAAGCACACAAGCATATAGACATATA [CACACA_site222],6.3
9,AAATTCCACCAACACACACACATATAAATAAATAAA [CACACA_site1233],6.84
10,TTTATATTTTATAAATTATTCATAAATATATTTGTA [TGCATGCA_negctrl_site175],6.34
11,CTCTATAAATGCTGCACACACATTTAATTATTTAAG [CACACA_site2582],8.11
12,TATAAATATAAATATACACACATATTTATATTTATA [CACACA_site7053],6.52
13,TATAAATAAAAACACACACACACATATATATATATA [CACACA_site2268],9.31
14,AAATGAAATACATCCTGTACATAGTAATGCTAACAA [XGTACX_site6600],6.3
15,TTTTACAATGAAAGGTGTACAAGTAACAGTAGAACA [XGTACX_site1528],7.11
16,ATGAAAAAATTTATATGTACTTAAAATATAATCATA [XGTACX_site1228],6.13
17,TATATTATTAAGATATGTACATAATTATAAATTTAA [XGTACX_site6848],6.71
18,ATAAATAAAGGACACACACACACACTAGAAAAAAAA [CACACA_site5450],6.77
19,TTGTGCTTGATATCACGGACAAGCTCATATTATATA [XGTACX_site4553],6.03
20,AAAATAAAATTAGTTGCATGCAACTTAAACAGAAAT [TGCATGCA_site860],9.2
21,ATGGTAGTTCTCCATGCATGCCTTTTTATTATCATA [TGCATGCA_site681],6.51
22,TGTGCCCAAAATTATGCACACACCTAAAATTAATTT [CACACA_site2914],10.5

row,Sequence,gcPBM binding intensity (ln)
1,TTTTTGTAAAAACACACACACAAACAGAAAAAATAA [CACACA_site2076],7.15
2,ATTATCATAATGTTCACACATATGGTATATATAGAT [CACACA_site6113],6.59
3,ATATGTGTATGTGCGTGTACATATCTATACAGTTGT [XGTACX_site6540],7.26
4,ACTATTTAGTCTGGTGGTACTTTATATATAATTTCT [XGTACX_site5618],6.59
5,TTTTATCTTTTTTTATTTTAATGTATTATTTTTATG [XGTACX_negctrl_site24],6.61
6,ATATGTAGATGATATTATTACTTTTCAAAAATTCAA [CACACA_negctrl_site933],6.22
7,TAATAAGAAATAACAGGTACACATATATAAATATTA [XGTACX_site2976],6.32
8,AAGTATAAAAAAAGGCGTACAAAAAAAAAAAAAAAA [XGTACX_site7309],6.29
9,TTTTTCATTAATACAAGTACAAAATGATGTTGACAT [XGTACX_site1475],6
10,ATAAAAGATATTTTTACACACTTTTGATGAGATCGT [CACACA_site3053],6.31
11,TTCAAGGTTTTAGATTGTACAATTATTATATATATA [XGTACX_site8982],7.16
12,GGTTGTATAAGTTTTTGTACATATATATATATATAT [XGTACX_site7487],9.19
13,ATACCAACATATTATACACACCTTTATATTTTTTTT [CACACA_site5217],6.89
14,GAATATAATCTGTATTGTACGAAAGTTGAACACTTG [XGTACX_site8895],6.3
15,TGAGCATAAAAAGGGTGTACTTAAATATATTATATA [XGTACX_site7556],7.39
16,TTTAGATAATTCATTACACACATGTATTTATATATA [CACACA_site5847],6.46
17,TATATATATATATATATATATACAAATATATATTAT [CACACA_negctrl_site1729],9.4
18,TTGTATTATTATGTTGCACACATTTTATATAAAATA [CACACA_site3641],9.14
19,AAATATAAACGGCACACACACAAAAAAAGAAAAAAA [CACACA_site649],6.31
20,AGAAACCTTGTTAGTTAGCATATATATATATATATA [CACACA_negctrl_site372],9.53
21,TATTTTATACATATTTTACACACTAATATATACATA [CACACA_site7998],6.72
22,TTTATTATACAAAATTGTACTTTATAATTTTATGTA [XGTACX_site5846],6.31

row,Sequence,gcPBM binding intensity (ln)
1,AAATATTACGGAATAAAGAGCTTTTAAATAATTTTA [CACACA_negctrl_site1700],6.08
2,ACTTTACAATATATATGTACATATTAATAAACATAT [XGTACX_site3689],7
3,AAAATAATATATGTATGTACATATACACATATAGAA [XGTACX_site2218],6.65
4,GAGTTTTTTTAATGATGTACATTTTAAAAATAAACG [XGTACX_site1036],6.35
5,AAATGTTATAACTCTTGAAAAAACAAAATATCATCA [CACACA_negctrl_site1156],6.29
6,TAATTTCTTATGTATTGTACAAATAATGTATGATAT [XGTACX_site270],6.63
7,AATCACAAATAAAATAATATGACACAATATAAAATA [CACACA_negctrl_site537],6.47
8,TACTTACACTGTTTTTGTACTTATTTCCCTTTTATT [XGTACX_site2158],7.31
9,TTCTTGTATTTTCATAGTACATATAATGTCGTATTA [XGTACX_site600],6.71
10,GAACGCCATTCACATAAAGGGATACATAAATAAATA [XGTACX_negctrl_site330],6.24
11,GCGTTATTAAATAATTCACACACATATATATATATA [CACACA_site8711],9.16
12,AAGAAAAACTTTACGTGTACCAAACGTCATGCCAAC [XGTACX_site2575],6.21
13,ATACAAAATTTTTAAGAACACACAAAAATGTACTAT [CACACA_site8817],6.31
14,TGAGGTAACTAAATATGTACGTAACGAAGATACATA [XGTACX_site8231],6.4
15,TTTATAAAAATGAACACACACATATATATATATATA [CACACA_site3493],9.37
16,AAATATTTATAGGTTTGTACTTATAAATAAAAAAAA [XGTACX_site7360],6
17,AATATGAAAAGATGAACAACAAAATGGAGAACAATA [GTGCAC_negctrl_site612],7.24
18,ATTTTTTTTTTTTTTTTTTTTTTTTATGAATGTTAT [CACACA_negctrl_site1319],5.88
19,ATCAGGCAAAATTTTTGTACATATATATTTTATTTT [XGTACX_site1245],7.34
20,ATTTTTTTTTTTTTTTTTTTTTTTTTTTTTTTTTTT [CACACA_negctrl_site1364],7.45
21,AGATTTCAAGGTAATAGATCAATTTTAATTTGTAAA [CACACA_negctrl_site514],5.98
